Assay results taken from publication PMC4336329 (PLoS ONE, 2015).
About 2,200 (0.71%) of roughly 310,000 compounds showed an effect of 50% or more. The effect is printed as a negative number. This is one part of the list.

Molecular target: human ether-à-go-go-related gene (hERG) potassium channel (human, UniProt Q12809)
Assay: primary screen, population patch clamp on CHO cells stably expressing hERG

human ether-à-go-go-related gene (hERG) potassium channel, sequence (Q12809 whole entry, looked up): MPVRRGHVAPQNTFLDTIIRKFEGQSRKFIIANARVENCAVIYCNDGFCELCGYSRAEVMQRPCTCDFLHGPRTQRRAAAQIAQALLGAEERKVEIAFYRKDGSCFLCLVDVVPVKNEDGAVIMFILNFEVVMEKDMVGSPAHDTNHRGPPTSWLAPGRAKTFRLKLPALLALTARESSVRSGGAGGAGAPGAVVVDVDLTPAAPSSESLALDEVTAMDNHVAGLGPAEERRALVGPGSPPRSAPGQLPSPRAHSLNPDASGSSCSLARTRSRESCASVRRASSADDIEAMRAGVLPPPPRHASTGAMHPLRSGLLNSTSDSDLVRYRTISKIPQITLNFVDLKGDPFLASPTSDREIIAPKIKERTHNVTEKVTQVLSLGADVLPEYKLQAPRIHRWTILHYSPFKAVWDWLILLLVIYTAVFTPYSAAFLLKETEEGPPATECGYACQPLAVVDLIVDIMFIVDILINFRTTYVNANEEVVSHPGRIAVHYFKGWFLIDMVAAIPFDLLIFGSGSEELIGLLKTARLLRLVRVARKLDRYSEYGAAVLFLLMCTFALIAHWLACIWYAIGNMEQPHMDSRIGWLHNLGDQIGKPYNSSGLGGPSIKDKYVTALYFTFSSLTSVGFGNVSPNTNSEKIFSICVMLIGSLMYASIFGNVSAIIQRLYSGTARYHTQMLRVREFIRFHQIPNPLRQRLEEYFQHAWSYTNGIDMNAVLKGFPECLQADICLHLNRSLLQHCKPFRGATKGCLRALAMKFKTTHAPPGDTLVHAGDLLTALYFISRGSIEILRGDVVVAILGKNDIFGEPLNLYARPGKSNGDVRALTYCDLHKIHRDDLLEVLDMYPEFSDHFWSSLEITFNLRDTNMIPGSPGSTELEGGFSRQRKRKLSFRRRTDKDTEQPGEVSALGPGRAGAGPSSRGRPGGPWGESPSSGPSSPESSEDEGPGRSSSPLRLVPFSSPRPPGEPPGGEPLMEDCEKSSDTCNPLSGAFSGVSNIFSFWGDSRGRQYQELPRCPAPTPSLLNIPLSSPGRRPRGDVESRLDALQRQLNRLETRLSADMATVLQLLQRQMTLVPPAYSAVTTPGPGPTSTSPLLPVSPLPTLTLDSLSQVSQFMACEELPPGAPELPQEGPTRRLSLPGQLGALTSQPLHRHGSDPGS

| Structure (SMILES) | hERG current change (%, negative = inhibition) at 1uM |
| --- | --- |
| Clc1cccc(Cl)c1Cn1nnc(-c2cccs2)n1 | 4.62% |
| COc1ccc(CN2C(=O)NC3(CCCCC3)C2=O)cc1F | 4.07% |
| Cc1noc(C)c1CSCC(=O)Nc1nc2ccc(F)cc2s1 | 6.79% |
| O=C(CNC(=O)C1CCCCC1)OCn1nnc2ccccc2c1=O | 6.85% |
| Cc1ccc(C(O)P(=O)(OC(C)C)c2ccc(N(C)C)cc2)cc1 (stereo not shown) | 12.3% |
| Nc1nc2n(n1)C(c1ccco1)CC(c1ccc(F)cc1)N2 (stereo not shown) | 5.87% |
| Cc1ccc(-c2nnc3sc(C4COc5ccccc5O4)nn23)cc1 (stereo not shown) | 0.653% |
| O=C(NC1CCCC1)C(c1ccccc1)N(C(=O)c1csnn1)c1ccccc1F (stereo not shown) | 8.71% |
| CC(C)(C)Nc1ncnc2c1cnn2-c1ccccc1 | 2% |
| Cc1cc(S(=O)(=O)Nc2cccnc2)c(Cl)cc1Cl | 5.14% |
| Cc1c(NC(=O)Cn2[nH]c(=O)c3ccccc3c2=O)c(=O)n(-c2ccccc2)n1C | 8.84% |
| CC(=O)Nc1ccc(S(=O)(=O)Nc2nc3ccccc3nc2Nc2cccc(S(N)(=O)=O)c2)cc1 | 11.9% |
| O=C(c1ccc2c(Cl)c3c(nc2c1)CCCC3)N1CCN(c2ccc(F)cc2)CC1 | 16.7% |
| CO/N=C/NC(=O)c1c(OC)ccnc1Oc1ccc(F)cc1 | 7.74% |
| CCc1cc2cccc(C)c2nc1SCC(=O)c1ccc(NC(C)=O)cc1 | 1.18% |
| Cc1ccc2oc(=O)n(Cc3ccccc3OC(C)C)c2c1 | 9.37% |
| COc1ccc(NC(=O)N(CCC(C)C)C(C)c2ccccn2)c(OC)c1 (stereo not shown) | 8.17% |
| COc1cccc(S(=O)(=O)NC2CCN(C#N)C2)c1 (stereo not shown) | 11% |
| O=C(Nc1ccc(Br)cc1)c1cnc[nH]1 | 10.3% |
| Cc1ccc(NC(=O)CCn2c(=S)oc3ccccc32)cc1F | 16.7% |
| C=CC[C@H]1CC(Cc2ccccc2)=C[C@H](CC=C)N1.Cl | 6.17% |
| O=C(CCC(=O)N(Cc1ccco1)C(C(=O)NC1CCCC1)c1ccncc1)Nc1cccnc1 (stereo not shown) | 3.43% |
| CCc1nnc(NC(=O)C2CCCO2)s1 (stereo not shown) | 12.5% |

| Structure (SMILES) | hERG current change (%, negative = inhibition) at 1uM |
| --- | --- |
| O=C(Nc1ncc(Cc2cccc(C(F)(F)F)c2)s1)C1CCCO1 (stereo not shown) | 3.93% |
| COc1ccc(N2C(=O)CSC2c2ccc(F)cc2)cc1 (stereo not shown) | 13.3% |
| CCO[C@@H]1OC(C(=O)N2CCOCC2)=C[C@H](c2ccccc2)[C@H]1CCCO | 20.8% |
| COc1ccc(/C=N/N=C/c2ccc(OC)c(OC)c2)cc1OC | 9.92% |
| CC1=NN(C(N)=S)C(=O)C1N=Nc1c(Br)cc(Br)cc1Br (stereo not shown) | 26.2% |
| O=C(O)C(=O)O.OC(Cn1cnnc1)c1ccccc1 (stereo not shown) | 9.15% |
| N#Cc1ccc(/C=C/C(=O)c2ccc3c(c2)OCO3)cc1 | 12.3% |
| CCN(CC)C(=O)c1ccc(COc2ccccc2Cl)o1 | 8.39% |
| Cc1sc(NC(=O)COc2ccccc2)c(C#N)c1-c1ccccc1 | 10.8% |
| Cc1cccc(CN2CCCC(C(=O)Nc3ccc(-c4cscn4)cc3)C2)c1 (stereo not shown) | -3.59% |
| COc1ccccc1CNC(=O)CSc1ccc(-c2cccs2)nn1 | 7.71% |
| Cc1c(N=Cc2ccc[nH]2)c(=O)n(-c2ccccc2)n1C | 14.4% |
| CC(C)CNC(=O)c1cccc(NC(=O)c2ccc(Cl)c([N+](=O)[O-])c2)c1 | 3.79% |
| S=C(Nc1ccc(Cl)cc1)NC1CCCCC1 | 8.29% |
| COc1ccccc1C(=O)N/C(=C/c1ccccc1)C(=O)Nc1ccc(C(=O)O)cc1 | 16.7% |
| CCCc1c(C(=O)N/N=C/c2ccccc2C(F)(F)F)nnn1-c1nonc1N | 11% |
| NS(=O)(=O)c1ccc(CCNC(=O)CSc2nc3ccccc3c(=O)n2CCC(=O)N2CCCCC2)cc1 | 5.72% |
| O=S(=O)(NCCc1ccccc1)c1cccc2cccnc12 | 12.1% |
| COc1ccccc1-c1cc(N)n(S(=O)(=O)c2ccc(F)c(C)c2)n1 | 8.32% |
| CCCCCCc1cc2cc(/C(N)=N/NC(=O)c3ccncc3)c(=O)oc2cc1O | 13.4% |
| CNS(=O)(=O)c1cnccc1N1CCN(c2cccc(C(F)(F)F)c2)CC1 | 3.11% |
| N#Cc1ccc(OCc2nnc3n2CCCCC3)cc1 | 1.92% |
| Cc1ccc(N(C(=O)CC2NC(=O)NC2=O)C2(C(=O)NC3CCCC3)CCCCC2)cc1 (stereo not shown) | 11.7% |

| Structure (SMILES) | hERG current change (%, negative = inhibition) at 1uM |
| --- | --- |
| O=C(COC(=O)CCSc1ccccc1Cl)Nc1ccc(F)cc1F | 9.39% |
| CN(C)C(=O)c1cc(-c2ccccc2)no1 | 18.9% |
| Cc1ccc(N(C)C(=O)CC(C)S(=O)(=O)c2ccc3c(c2)NC(=O)CO3)cc1 (stereo not shown) | 1.63% |
| Cc1cccc(C)c1-n1nnnc1C1(Nc2ccccc2)CCCCC1 | 2.95% |
| COc1ccc(Nc2ncnc3c2cnn3Cc2ccccc2)cc1 | 3.65% |
| CC(C)CCn1c(C(C)O)nc2ccccc21 (stereo not shown) | 8.07% |
| CCOc1ccc(NC(=O)C2CCN(S(=O)(=O)CC)CC2)cc1 | 11.9% |
| Cc1ccccc1NS(=O)(=O)c1cc(OCC(N)=O)c(C)cc1Cl | 8.43% |
| Cc1ccccc1CC1(CO)CCCN(C(=O)CCN2CCCO2)C1 (stereo not shown) | 15.6% |
| CCC(=O)N(CC)Cc1cc(=O)[nH]c2ccccc12 | -1.15% |
| O=C(NC(=S)NCCO)c1sc2ccccc2c1Cl | 7.91% |
| COc1cnc(-c2ccccn2)nc1Oc1cccc(C(F)(F)F)c1 | 10.4% |
| COc1cc(CNc2ccc(N3CCCC3)cc2)cc(Cl)c1OC | 2.12% |
| CCOC(=O)C(NC(=O)c1ccccc1)=C1C=C(C)OC(C)=C1 | 16.3% |
| C=CCn1c(O)c(N=O)c2ccccc21 | 8.22% |
| O=C(COC(=O)c1cccc(-n2cnnn2)c1)c1ccc(Br)cc1 | 21.7% |
| COCc1cc(C)nc2sc3c(=O)oc(C)nc3c12 | 5.86% |
| CCOc1cc(C(=O)Nc2cccnc2)cc(OCC)c1OCC | 8.43% |
| Cn1cc(CCC(=O)N2CCCC(CCC(=O)NCc3ccccc3F)C2)cn1 (stereo not shown) | 12.2% |
| Cc1cc(C)cc(NC(=O)c2cc(Cl)sc2Cl)c1 | 15.7% |
| Cc1cc(C)c(-c2noc(C(=O)OC(C)(C)C)c2C(=O)OC(C)(C)C)c(C)c1 | 5.95% |
| Cc1ccc(CNC(=O)C2(NC(=O)Nc3ccc(C)cc3)CCCCC2)cc1 | 16.7% |
| Cc1ccc(S(=O)(=O)CCC(=O)Nc2cccc([N+](=O)[O-])c2)cc1 | -7.98% |

| Structure (SMILES) | hERG current change (%, negative = inhibition) at 1uM |
| --- | --- |
| Cc1nc([N+](=O)[O-])cn1CC(O)c1ccc(-c2ccccc2)cc1 (stereo not shown) | -6.66% |
| N/C(=N\OC(=O)c1ccco1)c1ccccc1 | 13.6% |
| Cc1ccc(NC(=O)c2cc(-c3ccccc3)nn2-c2ccccc2)c(Br)c1 | 1.57% |
| CCOCCn1c(CN2CCN(c3ccccc3)CC2)nc2c1c(=O)n(C)c(=O)n2C | -3.81% |
| O=C(NCC(=O)N1CCN(C(c2ccccc2)c2ccccc2)CC1)c1ccccc1F | 8.87% |
| CC1(C)c2ccccc2-n2c1cc1oc(=O)cc(O)c1c2=O | 11.9% |
| NC(=O)c1nn(CC(=O)Nc2ccc3c(c2)OCO3)cc1[N+](=O)[O-] | 5.64% |
| CC1CCCN(C(=O)C(C)Sc2nc(-c3ccccc3)cc(C(F)(F)F)n2)C1 (stereo not shown) | 11.9% |
| O=C(Nc1ccc2cn[nH]c2c1)c1ccccc1F | -1.69% |
| Cc1cccc(C(=O)OC(C)C(=O)NC2CCCc3ccccc32)c1O (stereo not shown) | 0.675% |
| CCN(C(=O)COC(=O)c1ccc(Cl)c(N)c1)C1CCS(=O)(=O)C1 (stereo not shown) | 16.5% |
| O=C(NCc1cccnc1)C12CC3CC(CC(Cl)(C3)C1)C2 | 19% |
| S=C1NCCc2ccccc2C1c1ccccc1Cl (stereo not shown) | -3.99% |
| CC(C)N(C(=O)COC(=O)c1ccc(Cl)nc1)C(C)C | 8.95% |
| O=C(NCc1cccnc1)C(=O)NCC1OCCN1S(=O)(=O)c1ccccc1 (stereo not shown) | 8.54% |
| CC1=NN(c2ccccc2)C(=O)C1N=Nc1ccccc1 (stereo not shown) | 12.2% |
| COc1ccc(C(CNC(=O)c2ccc(C)c(S(=O)(=O)Nc3ccccc3OC)c2)N2CCCC2)cc1 (stereo not shown) | -15.8% |
| CCn1c(CN(C)c2ccccc2)nc2ccccc21 | 7.21% |
| CCOc1ccc(S(=O)(=O)N2CCN(S(=O)(=O)c3ccc(OCC)cc3)C(C)C2)cc1 (stereo not shown) | -16.8% |
| Cc1ccc(-c2csc(NC(=O)CSc3nnc4c(n3)[nH]c3ccccc34)n2)cc1 | 17.3% |
| C1CC1Cc1noc(CN2CCN(CC3CC3)CC2)n1 | 8.29% |
| COc1cc(OC)c2c(OC)cccc2n1 | 6.37% |
